We go through 172 sequences from article PMC10668032.

This is one part of the list. At the low end of the ranking the order means little.

In this experiment the target is SIX1-Q177R homeodomain (UniProt Q15475). Description: universal protein binding microarray. Conditions: Universal all-10-mer PBM (8x60K, AMADID 030236), 300 nM GST-tagged protein, Alexa Fluor 488 anti-GST; buffer, salt, pH and temperature not stated; high values mean tight binding; most listed sequences are background and not binding sites; double strand, one strand shown.
For CAGCCGGC, the binding signal is -0.101 E-score. Consider ATCTCGAG, for which the binding signal was -0.0565 E-score. Next, GAGGGGCA: -0.00898 E-score; CCTCGCGC: -0.162 E-score; AAAGAATT: -0.234 E-score. The value for AACCGAGT was 0.0654 E-score. Next, GACATGAC: 0.0601 E-score; CGCCACTC: 0.125 E-score; AGAGGTTG: -0.0594 E-score.

As for CAAACGAC, the binding signal is -0.0375 E-score. The value for AACCCAAG was -0.0688 E-score. With CTATGTAA, the binding signal was -0.0875 E-score. The value for CTTTAGAA was -0.108 E-score; that for AGGAGCGG was 0.0175 E-score.

Turning to GAGACTTA, the binding signal was -0.0386 E-score. Next, ACAAGCCC: -0.0233 E-score; AGCTACTA: -0.115 E-score; CCATAGTA: 0.00935 E-score. The value for GGGGCCAC was -0.129 E-score; that for GGACCGCA was -0.0821 E-score. Next, TACTGGAA: 0.0148 E-score.

As for GAGCATGC, the binding signal is -0.182 E-score. Next, AAGTACAC: 0.425 E-score. The value for AATCGGCC was -0.169 E-score; that for CCACACGG was 0.197 E-score. With CTTAGTGC, the binding signal was -0.179 E-score.

For AATAATTG, the binding signal is -0.12 E-score. In the case of ACACACGG, the binding signal is 0.301 E-score.

Regarding GAGAAATC, the binding signal is -0.342 E-score. Next, CGAACCGC: 0.0107 E-score.

As for ATACGACC, the binding signal was -0.0273 E-score. The value for CCAGTCCA was 0.0437 E-score; that for AATACGAA was 0.00567 E-score. The value for AGCCGAGG was 0.0198 E-score. Next, CAGGAAGA: -0.111 E-score. As to AGATTGCA, the binding signal is -0.0732 E-score. In the case of CCTTGACG, the binding signal is -0.102 E-score. Turning to ATCAGTAG, the binding signal was -0.048 E-score.

CCGTGAAC: the binding signal was found to be 0.0207 E-score.

For GCACATCA, the binding signal was -0.282 E-score. Next, CGCCCTAC: 0.0722 E-score.

Turning to CTAGTCTA, the binding signal was -0.133 E-score. The value for AAGATAGT was -0.03 E-score; that for TGTGGGAA was 0.0276 E-score. Next, CAAACCAC: 0.0221 E-score. With GAGGGACA, the binding signal turned out to be 0.0753 E-score. The value for ATGGCCAG was -0.198 E-score. On to AAGTAGAT, for which the binding signal is -0.16 E-score. With TCCCGGCA, the binding signal is -0.015 E-score. Next, TACTATAA: 0.0696 E-score. Next, AATGACCG: -0.135 E-score; CATTGGAG: -0.0307 E-score.

As for GACCGTTA, the binding signal is -0.192 E-score. The value for AATGTCAC was 0.0557 E-score; that for CAAGGGGC was 0.0814 E-score; that for GAAGAACC was 0.052 E-score. The value for CTTGGCAA was -0.207 E-score; that for ATGAAGTC was -0.161 E-score; that for AACGTATG was -0.324 E-score. The value for ACATAGGA was -0.043 E-score; that for TACTTAGA was -0.00505 E-score. Consider GTAGAAAA, for which the binding signal was -0.166 E-score. Next, GAGTATGA: 0.0473 E-score; GTGACATA: -0.0585 E-score. Turning to TCGCTAAA, the binding signal is -0.044 E-score. With CGGGGTTA, the binding signal was determined as 0.22 E-score.

With AGGATGGG, the binding signal came out at 0.0362 E-score. Next, ACTAAGCA: -0.0899 E-score. The value for AAGTTGAA was -0.0495 E-score. Next, AACGCGTA: -0.221 E-score; CGCACGAC: 0.187 E-score. With CATCATAC, the binding signal came to 0.034 E-score.

For the sequence AACAACTT, the binding signal was -0.277 E-score.

As for ACGAACCC, the binding signal was 0.118 E-score. Next, CAACTACG: 0.116 E-score. Next, TCAGCCCA: 0.0774 E-score. Next, CGGATCTA: 0.00671 E-score; GGAATCAA: -0.0343 E-score. For ACAGGTAT, the binding signal turned out to be 0.0906 E-score. The value for CACACTGG was 0.264 E-score. Next, AAGGCGCG: -0.0377 E-score.

For AAATGCGG, the binding signal was -0.0522 E-score. The value for ACATGTGC was -0.141 E-score; that for GGGGTCCA was 0.268 E-score.

Regarding AACCCGGC, the binding signal was -0.0133 E-score.

Take CTCGACTA: the binding signal was -0.111 E-score. Turning to ATTTACAA, the binding signal was found to be 0.0157 E-score. The value for ATGTTGCG was -0.195 E-score; that for AGACGACT was 0.0752 E-score; that for GGTCCTCA was -0.0992 E-score. Consider AGCTAGAT, for which the binding signal was 0.008 E-score. Next, AAAATCGC: -0.33 E-score; ACTTTGGC: -0.198 E-score. The value for AGCGTTGC was -0.234 E-score; that for CATACGAG was -0.224 E-score.

In the case of AAAACCTG, the binding signal was -0.0973 E-score. Next, CAACGTAC: -0.000275 E-score. The value for CATTACTC was 0.173 E-score; that for GCGCCTAA was -0.243 E-score. Next, TACCATAA: 0.0229 E-score; ACTCTGAC: 0.172 E-score. CGTAGACG: the binding signal is -0.324 E-score.

With TCATGAAA, the binding signal came out at 0.00196 E-score. The value for GGCTGAAC was 0.133 E-score. The value for CAGTGATG was -0.0618 E-score. Next, GCAGCACC: 0.219 E-score.

In the case of ATATTATC, the binding signal was -0.138 E-score. Next, GAGTTTAC: 0.00043 E-score.

For the sequence AGGGCGGG, the binding signal is 0.0483 E-score. The value for ATGATACC was 0.335 E-score; that for CCGCGACC was -0.0328 E-score; that for TACCCTAA was 0.0683 E-score. In the case of ACTGGACT, the binding signal is -0.0611 E-score. The value for CGACTCAG was -0.093 E-score; that for ACCCACCC was 0.276 E-score. The value for ATTTTCTC was -0.281 E-score; that for CCCATTAC was 0.0463 E-score. Consider CATATATA, for which the binding signal is -0.113 E-score. Next, ATATGCGG: -0.0142 E-score; TCTCCAGA: -0.18 E-score; CAATATGA: -0.0552 E-score. The value for ATTTCCAC was -0.119 E-score. As for GGAGGGGA, the binding signal is 0.158 E-score. The value for ACTTTTAA was -0.0597 E-score; that for CGCTAGTA was -0.0769 E-score. CTCAGAAC: the binding signal was -0.166 E-score. Next, CCCCCAGA: 0.0771 E-score; ACTTGAGA: -0.159 E-score.

Regarding ACGTCCCT, the binding signal worked out at 0.14 E-score. The value for AAATCCGT was -0.0909 E-score; that for CATCATCA was -0.179 E-score; that for ACCCTACA was 0.297 E-score. The value for GGGCCCTA was -0.201 E-score; that for ACGGTTCC was -0.206 E-score.

For the sequence AGACCCGG, the binding signal was 0.167 E-score. Turning to TCATCGGA, the binding signal was -0.0466 E-score. On to TACTGACA, for which the binding signal was determined as 0.22 E-score.

With AGAGTAAT, the binding signal amounted to 0.103 E-score. Consider GACCCCTA, for which the binding signal was found to be 0.203 E-score. The value for GCATTATA was -0.116 E-score; that for ATGTTCCG was -0.0878 E-score; that for ATCACAAG was -0.0887 E-score.

Take AATGAGAA: the binding signal is -0.086 E-score.

Turning to AGCTCCGG, the binding signal is -0.117 E-score. Next, ACCATGCA: 0.152 E-score. In the case of CGAGTGAC, the binding signal was 0.0199 E-score. Consider ATGGCTAG, for which the binding signal was -0.159 E-score. For the sequence CTTATAAG, the binding signal is -0.102 E-score.

As to CGGGTCAA, the binding signal is 0.2 E-score. Next, AGATGTCC: -0.233 E-score; ATTTTGAC: 0.105 E-score. Next, GCTTCGCC: -0.283 E-score; CAGCCCCA: -0.215 E-score. The value for CACTACCG was 0.102 E-score; that for TACAAGCA was -0.0717 E-score.

Regarding ATTCAAGA, the binding signal was -0.0473 E-score. Next, GGGGCCCC: -0.205 E-score. For the sequence ATTGCGCG, the binding signal was -0.044 E-score.

As for AGAACCCT, the binding signal was 0.0646 E-score. The value for GACTCCTC was 0.166 E-score. The value for CCACTAGC was -0.116 E-score. Next, ATAGCACA: 0.0226 E-score; TCTCTGAA: -0.0891 E-score; AACCTCAT: -0.195 E-score. For the sequence ACTAGCCC, the binding signal is 0.113 E-score. The value for CCCCGGTC was 0.147 E-score. The value for ATGCGCTG was -0.219 E-score; that for ACACGAGA was 0.352 E-score; that for CCTCTCAG was -0.243 E-score. Next, CCAGTGGG: 0.224 E-score; GTCCACAA: -0.0944 E-score. CGTAGCTA: the binding signal is -0.173 E-score.
